This is one part of the list. Single values of this set are uncertain. Values with irradiation are relative to irradiated vehicle.
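Also: viability correction based on the alamar blue assay, with concentrations leaving 10% survival or less dropped.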

For this assay, the system named is A549-Dual. In words: NF-kB reporter (SEAP) activity, viability-corrected, relative to vehicle (fold change vs vehicle); higher = more activation of STING-IRF / NF-kB immune response reporter. The note with it: 10 µM; irradiation: 8 Gy/4 fr.
In turn, `COc1cc2nc(N(C)CCCNC(=O)C3CCCO3)nc(N)c2cc1OC.Cl` (stereo not given) [Alfuzosin HCl] came in with an NF-kB reporter of 0.801.

Take `N=C(N)NCCCC1NC(=O)C(CCCCN)NC(=O)C(Cc2ccccc2)NC(=O)C(CC(=O)O)NC(=O)CNC1=O.O=C(O)C(F)(F)F` (stereo not given) [Cyclo (-RGDfK)]: the NF-kB reporter came to 0.93.

For the molecule `CC(C)=CCCC(C)(OC1OC(CO)C(O)C(O)C1O)C1CCC2(C)C1C(O)CC1C3(C)CCC(O)C(C)(C)C3C(OC3OC(CO)C(O)C(O)C3OC3OC(C)C(O)C(O)C3O)CC12C` (stereo not given) [Ginsenoside Re], the NF-kB reporter is 1.18.

`Cc1onc(-c2ccccc2)c1-c1ccc(S(N)(=O)=O)cc1` [Valdecoxib] returned an NF-kB reporter of 0.835.

For `Cc1cc(C)nc(NS(=O)(=O)c2ccc(N)cc2)n1` [Sulfamethazine], the NF-kB reporter turned out to be 0.795.

The molecule `NC12CC3CC(CC(C3)C1)C2` [Amantadine] displayed an NF-kB reporter of 0.746.

For the molecule `O=C(NCC(O)CO)c1c(I)c(C(=O)NCC(O)CO)c(I)c(N(CCO)C(=O)CO)c1I` (stereo not given) [Ioversol], the NF-kB reporter is 0.865.

In the case of `CCN(CC)CC(=O)Oc1ccc(NC(C)=O)cc1.Cl` [Propacetamol hydrochloride], the NF-kB reporter came to 0.458.

Molecule `CCS(=O)(=O)CCn1c([N+](=O)[O-])cnc1C` [Tinidazole] showed an NF-kB reporter of 1.

Take `CCCCOc1ccc(OCCCN2CCOCC2)cc1.Cl` [Pramoxine HCl]: the NF-kB reporter amounted to 1.09.

`Cc1nc[nH]c1CN1CCc2c(c3ccccc3n2C)C1=O.Cl` [Alosetron Hydrochloride] came in with an NF-kB reporter of 0.64.

As to `OCC(O)COc1ccc(Cl)cc1` (stereo not given) [Chlorphenesin], the NF-kB reporter is 0.647.

For the molecule `O=c1cc(O)c(Cl)c[nH]1` [Gimeracil], the NF-kB reporter stood at 0.613.

Take `O=C(O)c1cc(=O)[nH]c(=O)[nH]1` [Orotic acid (6-Carboxyuracil)]: the NF-kB reporter was determined as 1.14.

Molecule `CNCC(O)C(O)C(O)C(O)CO.CNCC(O)C(O)C(O)C(O)CO.O=C(O)CN1CCN2CCN(CC(=O)O)CC(=O)[O][Gd]([O]C(=O)C2)[O]C(=O)C1` [Gadopentetate Dimeglumine] returned an NF-kB reporter of 1.62.

Regarding `CS(=O)(=O)O.Cc1c(O)cccc1C(=O)NC(CSc1ccccc1)C(O)CN1CC2CCCCC2CC1C(=O)NC(C)(C)C` (stereo not given) [Nelfinavir Mesylate], the NF-kB reporter amounted to 0.405.

`CCN1CCCC1CNC(=O)c1cc(S(=O)(=O)CC)c(N)cc1OC` (stereo not given) [Amisulpride] came in with an NF-kB reporter of 0.932.

In turn, `CC(=O)NC(CC(C)C)C(=O)O` (stereo not given) [Acetylleucine] displayed an NF-kB reporter of 0.962.

Turning to `NC(Cc1cc(I)c(Oc2cc(I)c(O)c(I)c2)c(I)c1)C(=O)[O-].[Na+]` (stereo not given) [Levothyroxine sodium], the NF-kB reporter is 0.932.

`Cl.O=C1C2CCCCC2C(=O)N1CCCCN1CCN(c2nsc3ccccc23)CC1` (stereo not given) [Perospirone hydrochloride] showed an NF-kB reporter of 0.589.

As for `CCOC(=O)C1=CC2(CC)CCCN3CCc4c(n1c1ccccc41)C32` (stereo not given) [Vinpocetine], the NF-kB reporter was determined as 0.567.

In the case of `COc1ccccc1OCCNCC(O)COc1cccc2[nH]c3ccccc3c12.O=P(O)(O)O` (stereo not given) [Carvedilol Phosphate], the NF-kB reporter was found to be 0.913.

`COc1ccccc1OCCNCC(O)COc1cccc2[nH]c3ccccc3c12` (stereo not given) [Carvedilol] had an NF-kB reporter of 1.06.

`COc1ccc(C(=O)c2ccc(C)cc2)c(O)c1` [Mexenone] came in with an NF-kB reporter of 0.677.

In the case of `CCOCCn1c(N2CCCN(C)CC2)nc2ccccc21.O=C(O)/C=C/C(=O)O.O=C(O)/C=C/C(=O)O` [Emedastine Difumarate], the NF-kB reporter was 1.08.

In turn, `CNC1C(O)C(NC)C2OC3(O)C(=O)CC(C)OC3OC2C1O.Cl.Cl` (stereo not given) [Spectinomycin 2HCl] registered an NF-kB reporter of 0.831.

In turn, `CC1=C(C(=O)O)N2C(=O)C(NC(=O)C(N)c3ccccc3)C2SC1` (stereo not given) [Cephalexin] had an NF-kB reporter of 1.08.

`CC(=O)O.Cc1c(-c2ccc(O)cc2)n(Cc2ccc(OCCN3CCCCCC3)cc2)c2ccc(O)cc12` [Bazedoxifene Acetate] registered an NF-kB reporter of 0.621.

The molecule `O=C([O-])P(=O)([O-])[O-].[Na+].[Na+].[Na+]` [Foscarnet Sodium] showed an NF-kB reporter of 0.917.

In the case of `CN(C)CCOC(c1ccccc1)c1ccccc1.Cn1c(=O)c2[nH]c(Cl)nc2n(C)c1=O` [Dimenhydrinate], the NF-kB reporter turned out to be 0.876.

Turning to `OCC1OC(OC2C(CO)OC(O)C(O)C2O)C(O)C(O)C1O` [D-(+)-Cellobiose], the NF-kB reporter was found to be 0.751.

In turn, `O=C1C(O)=C(C2CCC(c3ccc(Cl)cc3)CC2)C(=O)c2ccccc21` (stereo not given) [Atovaquone] had an NF-kB reporter of 0.5.

With `COC(=O)C1C(C)C(OC)/C=C/OC2(C)Oc3c(C)c(O)c4c(O)c(cc([O-])c4c3C2=O)NC(=O)/C(C)=C\C=C\C(C)C(O)C(C)C(O)C1C.[Na+]` (stereo not given) [Rifamycin sodium salt], the NF-kB reporter turned out to be 1.6.

`Br.Cc1ccc(Sc2ccccc2N2CCNCC2)c(C)c1`: the NF-kB reporter was found to be 0.458.

`CC(Cn1cnc2c(N)ncnc21)OCP(=O)(O)O` (stereo not given) [Tenofovir]: the NF-kB reporter is 0.555.

On to `COC(=O)C1=C(C)NC(C)=C(C(=O)OCCN(C)Cc2ccccc2)C1c1cccc([N+](=O)[O-])c1.Cl` (stereo not given) [Nicardipine HCl], for which the NF-kB reporter came to 0.649.

`Br.COc1ccc2c3c1OC1CC(O)C=CC31CCN(C)C2` (stereo not given) [Galanthamine HBr]: the NF-kB reporter amounted to 0.78.

`COc1cc(N)c(Cl)cc1C(=O)NC1CCN(CCCOc2ccc(F)cc2)CC1OC.O` (stereo not given) [Cisapride hydrate]: the NF-kB reporter came out at 0.851.

With `CCCCCCCCCCCCCCC(=O)O` [Pentadecanoic acid], the NF-kB reporter turned out to be 0.888.

Molecule `CCCSc1ccc2nc(NC(=O)OC)[nH]c2c1` [Albendazole] showed an NF-kB reporter of 0.53.

These data come from the supplement of paper PMC9174493.
